Measured values taken from the supplement of paper PMC11417369.
± gives the standard deviation of the averaged measurements. Some of the results follow.

Tested on: PfAP2-G AP2 domain (GST-tagged)
Assay: gcPBM binding intensity (ln(normalized median fluorescence intensity)); higher = stronger DNA binding
Outline: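 GST-tagged P. falciparum DNA-binding domains, expressed in E. coli (about 25 μg on average), were applied for 1 h to an Agilent 4 × 180k array of primer-extended double-stranded 36-bp intergenic genomic probes plus negative controls. The binding buffer was 1× PBS with 1% milk, 0.2 mg/ml BSA, 0.5% salmon testes DNA and 0.03% Triton X-100. Bound protein was detected with Alexa488 anti-GST antibody and scanned at 488 nm. Binding intensity is the highest Masliner-normalised natural-log median intensity across replicate spots of either probe orientation.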

Row | Sequence | gcPBM binding intensity (ln)
1 | ATGAGTGTAATAATATGTACATAACCTACATAATTT [XGTACX_site852] | 11.1 ± 0.52
2 | AGTTGTTACGAACATACACACGAACATAGACACGGA [CACACA_site8102] | 10.4 ± 0.29
3 | ACACGCACATATATATAAATATATATATATATAAAT [CACACA_negctrl_site1781] | 9.87 ± 0.14
4 | AATAAAAATATTTTTACATGCAAATGTTATATATTT [TGCATGCA_site1056] | 9.74 ± 0.22
5 | GCACACATATAATAATGTACATATATATATTTAAAA [XGTACX_site4561] | 11.1 ± 0.66
6 | TATTGATTATTTGAATGTACTTATTATATTAAATAT [XGTACX_site1304] | 11.2 ± 0.9
7 | TAATATGATCTTAATAGTACTTTATTAATAATAACC [XGTACX_site1953] | 10.8 ± 0.57
8 | TATATATGTTTATGTAGTACTATATATCCCTTTCTT [XGTACX_site7049] | 11.2 ± 0.71
9 | AAAAAAAATTATTATGAACACACATTTATTATATTC [CACACA_site8443] | 9.66 ± 0.18
10 | ATTCTACACAGACATACACACATATATATATATATA [CACACA_site5826] | 10.3 ± 0.25
11 | AATAACCACAGACACACACACATATAAATATAAATA [CACACA_site7631] | 10.2 ± 0.28
12 | TCTTTTAACACATGTGATATTATTTAATAACAATAA [CACACA_negctrl_site339] | 9.795 ± 0.049
13 | GGTATACACAAGTATACACACATATAAATATAAATA [CACACA_site7511] | 10.1 ± 0.25
14 | TGTACATATATATATATATATGTTACTGAAATAAAA [CACACA_negctrl_site1658] | 10.7 ± 0.45
15 | AAGAATAACTTTTATACATGCAGCATAATATATTGT [TGCATGCA_site605] | 10.01 ± 0.014
16 | CTTTTATAATTCATATGTACTTATTTTTAACATAGG [XGTACX_site7808] | 11.3 ± 0.86
17 | GTGATTAATATATACACACATACATATATATATATA [CACACA_site2817] | 10.1 ± 0.2
18 | ATATATATGTATACATGTACATATTTTATTATGTGC [XGTACX_site7207] | 11.2 ± 0.61
19 | TTTTTAAATTCTTTAATATGTTTTATATATCAAAAT [CACACA_negctrl_site75] | 9.755 ± 0.049
20 | TCTTATCATTTTAAATCACACACATATATATATATA [CACACA_site8925] | 10.2 ± 0.45
21 | TTACAGATATTTATCTGTACATATATTTAAAAATAT [XGTACX_site7431] | 11 ± 0.81
22 | TAATTTTTTTAAAAGCGTACATTTAAAAAAAAATAT [XGTACX_site2736] | 11.4 ± 0.98

Row | Sequence | gcPBM binding intensity (ln)
23 | AAAAGTAAAAAAAAAAAAAGTAAAAAAAAAAAAAAA [CACACA_negctrl_site389] | 9.685 ± 0.092
24 | ATTTATATTTATAAATGTACACATATATATTTCATT [XGTACX_site2723] | 11.2 ± 0.63
25 | TCCTATAATTTTTTAATCAAAATATTTTATCCTTTG [CACACA_negctrl_site793] | 9.74 ± 0.25
26 | ACTGTAATATTGAAAGTGCATTAAAGTGTATATTAT [GTGCAC_site9970] | 10.2 ± 0.18
27 | TTATTTTATTTAGGGTGTACCCAATTTTTCCATATG [XGTACX_site4957] | 11.5 ± 0.86
28 | GTTATATATTTTTATGCATGCATTTTTAAATATATA [TGCATGCA_site175] | 9.8 ± 0.15
29 | TATATATATTTATGCACACAAAATATATTATAGAAT [CACACA_site3740] | 10.14 ± 0.057
30 | AATGTTTATTTTGTTTGTACATAAAATGAATAAAAT [XGTACX_site1456] | 11.1 ± 0.77
31 | AAAATATACATATATGCATGCATATAAATAAAAAAA [TGCATGCA_site812] | 9.795 ± 0.064
32 | ATACATAAATTTTGTACACACAAAAAAAAAAAAGCT [CACACA_site1351] | 11.2 ± 0.87
33 | TTTATATATATAAATATGTAGATAACAATATTCTGA [TGCATGCA_negctrl_site554] | 9.78 ± 0.23
34 | TTATTCCTTTTCCTTTTTTTTTTTTAACCAAAAAAA [CACACA_negctrl_site309] | 10.2 ± 0.38
35 | AATGATAAATAAAAAGCATGCAACAAATAAAAATAA [TGCATGCA_site453] | 10 ± 0.2
36 | AACAAAACTTTGGATACATGCAAAATTTTTAAATGA [TGCATGCA_site249] | 9.935 ± 0.035
37 | GATAAAACGTTATGCACACGTACGTGAGTATTTATA [CACACA_site1570] | 11.1 ± 0.68
38 | GTTTTTTTGTTTTAAAGTACTTAAAAAAAAAATATA [XGTACX_site6998] | 11.3 ± 0.84
39 | ATATATATATGTTTATGTACTTATAATAATATAACT [XGTACX_site4828] | 11.2 ± 0.76
40 | TAATTTAAGAAAAAATGTACACAAATATAATAATAG [XGTACX_site8317] | 11.5 ± 0.81
41 | AATAGTAAAAGATATACACACACCAAAAAATAGAAT [CACACA_site2289] | 10.13 ± 0.014
42 | ATTATACATATGTATGCACACATACATACACATATA [CACACA_site9155] | 10.3 ± 0.35
43 | GCATGGAACCATATATGTACATATATAAATAAATAA [XGTACX_site4996] | 11.2 ± 0.63
44 | GTATCTTTCAAAATATGTACATATATATATGTGTGT [XGTACX_site3512] | 11.3 ± 0.78
